We go through 42 sequences from article PMC7819943, “Rice protein-binding microarrays: a tool to detect cis-acting elements near promoter regions in rice”.

The list shows a part of the results.

The target of the experiment is T1, OsWOX13 (Oryza sativa, UniProt Q5QMM3 1-267).
T1 sequence: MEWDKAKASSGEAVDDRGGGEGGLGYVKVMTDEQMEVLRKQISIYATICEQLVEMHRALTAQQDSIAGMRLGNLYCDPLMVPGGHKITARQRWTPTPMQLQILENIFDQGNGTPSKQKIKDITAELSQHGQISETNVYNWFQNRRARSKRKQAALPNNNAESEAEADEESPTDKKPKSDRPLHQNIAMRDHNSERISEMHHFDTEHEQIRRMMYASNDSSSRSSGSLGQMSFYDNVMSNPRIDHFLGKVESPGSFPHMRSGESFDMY
Description: protein-binding microarray (RPBM); PBS, 2% BSA, 51.3 ng/ul salmon testes DNA, 50 uM zinc acetate, 200 nM TF, 25 C, 1 h; high values mean tight binding. The following applies: protein: recombinant; tags: N-terminal polyhistidine and DsRed monomer fusion (pET32a); label: CyDye5-dUTP incorporated in the synthesized complementary strand; 3' TTTTT single-stranded linker to array surface; dsDNA, one strand shown. In short, it runs like this: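 In PBS with 2% BSA, salmon testes DNA and 50 µM zinc acetate, 200 nM protein was incubated on a custom Agilent array at 25 °C for 1 h and then washed off. The array had been made double-stranded by primer extension with Cy5-dUTP and blocked with 2% BSA. The proteins were transcription factors fused N-terminally to polyhistidine and DsRed, expressed in E. coli BL21-CodonPlus and purified on Ni–NTA. The binding signal is per-feature fluorescence intensity (arbitrary units) from an Axon 4000B scanner.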
In the case of “GTAAAGGCGAGGGAAATTGATAGGGAGTTTAGTTGGAGATCGGAGTCACCTAGTGCAG”, the binding signal is 3150 fluorescence intensity (a.u.).

As to “TAGCTTAGCTCGTATTCGTATAAAACGTAGTACAAGGTTCCGGAGTCACCTAGTGCAG”, the binding signal was 61300 fluorescence intensity (a.u.).

With “ATTTGATTAAATCTCTTAAATTAAGAAACGGCCCAAAATTCGGAGTCACCTAGTGCAG”, the binding signal was 18200 fluorescence intensity (a.u.).

Regarding “GGATGATTTTGTAACTTGATGACAAGTTGAGGGACCTTCGCGGAGTCACCTAGTGCAG”, the binding signal was 33100 fluorescence intensity (a.u.).

Turning to “CACGATGATTGTTTGTATATGGAAACACCAAAATGGTCTACGGAGTCACCTAGTGCAG”, the binding signal is 54700 fluorescence intensity (a.u.).

Consider “TAATAATTTGGGGAGCTTAATTGCTATCCAGTGATATATACGGAGTCACCTAGTGCAG”, for which the binding signal is 11100 fluorescence intensity (a.u.).

For the sequence “GCTAATTTTGGCCAAGTATCTTTATTTTGTTACAAAAGTTCGGAGTCACCTAGTGCAG”, the binding signal is 3770 fluorescence intensity (a.u.).

“ACACTGGATTGACCAAGTTCCTATGCATCTTCAAAGTTGCCGGAGTCACCTAGTGCAG”: the binding signal was 12500 fluorescence intensity (a.u.).

Consider “GAACAATTAACACTCATACCCATCATAGCATCAGACTCAACGGAGTCACCTAGTGCAG”, for which the binding signal was 3480 fluorescence intensity (a.u.).

“CTATAACAATCATTCATCATTGTTTGCGTTTATCCCTTCTCGGAGTCACCTAGTGCAG”: the binding signal was 5050 fluorescence intensity (a.u.).

On to “CTCTTGATGTATGGATTGAATACAAACTTGACATCCGATACGGAGTCACCTAGTGCAG”, for which the binding signal is 10600 fluorescence intensity (a.u.).

For “GGTGCTAAATTGGTTGCAGTTTGGACTAATGGTTCTATATCGGAGTCACCTAGTGCAG”, the binding signal is 10800 fluorescence intensity (a.u.).

In the case of “CTCTATTGACTGATGGACTGCCCACTCCTAGCTGGCTAGCCGGAGTCACCTAGTGCAG”, the binding signal is 21600 fluorescence intensity (a.u.).

On to “ACTTGTATATTTGTGGATTGATACATTACATATTGATCTACGGAGTCACCTAGTGCAG”, for which the binding signal was 5160 fluorescence intensity (a.u.).

As to “CCAAATTGCCATTGGCTATAGGCCATCCCCTTTGTTTGGCCGGAGTCACCTAGTGCAG”, the binding signal is 29600 fluorescence intensity (a.u.).

In the case of “TACATTAACCTTTAATTGCCTTATGCTGTTAATCATATAGCGGAGTCACCTAGTGCAG”, the binding signal was 9700 fluorescence intensity (a.u.).

On to “CCCTCCATCCCCTCAGTCCACTCAATCACCACACCAGCCACGGAGTCACCTAGTGCAG”, for which the binding signal was 3850 fluorescence intensity (a.u.).

As to “TCAGATTTTATGATAGATTTTGAAGGGCGTAAATAAATAGCGGAGTCACCTAGTGCAG”, the binding signal was 5630 fluorescence intensity (a.u.).

Turning to “TCTAAACTGGTTTATTATCACCCGTCACGGATAACTATTACGGAGTCACCTAGTGCAG”, the binding signal is 3260 fluorescence intensity (a.u.).

“TTCTTGCCGGAGGAGGGGCAGGGGAGGGAGCCGGGCGGGACGGAGTCACCTAGTGCAG”: the binding signal is 4360 fluorescence intensity (a.u.).

For “CTGGGTTGATTGTTATTTGTAACCGCTGATCTGGCTTGTGCGGAGTCACCTAGTGCAG”, the binding signal was 47300 fluorescence intensity (a.u.).

“TTAACTGTAACACATCCTGATTTGTTCTTTACATAGCATGCGGAGTCACCTAGTGCAG”: the binding signal was 13800 fluorescence intensity (a.u.).

With “CACACAACTCATGTCTATCAATCATTGCATCCCAACTTGCCGGAGTCACCTAGTGCAG”, the binding signal is 13300 fluorescence intensity (a.u.).

Regarding “GGTTATAGATGATTTGGAGTTAGTAGTCGACTATGCTATTCGGAGTCACCTAGTGCAG”, the binding signal was 7060 fluorescence intensity (a.u.).

On to “TAAATTGGAACCATGCCATTATAATTTTGTAAAGTTTGAGCGGAGTCACCTAGTGCAG”, for which the binding signal is 7570 fluorescence intensity (a.u.).

“CAAATTCTTGATTTCGTGTTAAATCTGGACAACTAGACTACGGAGTCACCTAGTGCAG”: the binding signal is 4850 fluorescence intensity (a.u.).

For the sequence “AAGATTAATTTCTTGATGCTTTGCAGTAACTGGGAACCCCCGGAGTCACCTAGTGCAG”, the binding signal is 45500 fluorescence intensity (a.u.).

For “TGAAATTGGAGCCCAAAACATACTAACCCAAATCTGGCCCCGGAGTCACCTAGTGCAG”, the binding signal was 5200 fluorescence intensity (a.u.).

As to “GGTGGGTTGGGCCGTGATTTGTATGGACTTTATTTGTAAGCGGAGTCACCTAGTGCAG”, the binding signal is 5260 fluorescence intensity (a.u.).

For “ATAGCCAATCTAATAGCCAATTCATACAATAATTGCTTACCGGAGTCACCTAGTGCAG”, the binding signal is 14500 fluorescence intensity (a.u.).

Consider “AGTAGACTTGATTGCAATAGTGTAACCGGATCGGAGTGACCGGAGTCACCTAGTGCAG”, for which the binding signal is 26400 fluorescence intensity (a.u.).

Take “CTTCTAATTTTAGCGTGAACAAAACCCACCATAACCGTACCGGAGTCACCTAGTGCAG”: the binding signal is 4730 fluorescence intensity (a.u.).

Regarding “AACAATTTAATTTATCAATTACAAAAGCTAAATTAGTAATCGGAGTCACCTAGTGCAG”, the binding signal was 24000 fluorescence intensity (a.u.).

For “ACAAATTAATTTTAAGCAACAAATATATCTGTCGGTAGTACGGAGTCACCTAGTGCAG”, the binding signal was 32200 fluorescence intensity (a.u.).

With “AACTATAATTGACAATATTTTCATTTGAGATAGTTTAAGGCGGAGTCACCTAGTGCAG”, the binding signal was 40300 fluorescence intensity (a.u.).

Turning to “TTCTAATTTTCGGGATGTTTGATGTAAAATATGAGGACTACGGAGTCACCTAGTGCAG”, the binding signal is 5160 fluorescence intensity (a.u.).

With “TCTGATTGACTTCTTCCAATTACTCACTCCTGCACGTCGGCGGAGTCACCTAGTGCAG”, the binding signal was 48400 fluorescence intensity (a.u.).

For the sequence “AGTAATTTCACGAAATTGGAGCCGATTCCTGGCAGAATATCGGAGTCACCTAGTGCAG”, the binding signal was 14200 fluorescence intensity (a.u.).

As for “CGGAGAATTAGAGTTGACTGGTCTAGAAAATGTAACGGAACGGAGTCACCTAGTGCAG”, the binding signal was 5680 fluorescence intensity (a.u.).

Take “GCCGATTGCAATTTCGTCATCACTGCGGTTAGGATTACACCGGAGTCACCTAGTGCAG”: the binding signal was 21900 fluorescence intensity (a.u.).

Consider “GACCATGATTTGGTGTCTGATGGATGTGCAGGTGTTCCACCGGAGTCACCTAGTGCAG”, for which the binding signal is 33100 fluorescence intensity (a.u.).

For “AAGTTATAATTTGAAGTTAGAGGATGGGATAGAAGTAAGACGGAGTCACCTAGTGCAG”, the binding signal is 3780 fluorescence intensity (a.u.).
